# Data as given in the supplement of paper PMC12217912.
# This is one part of the list. Sequences were assembled here from the parent chain. Inactive controls read about 0.05.
# B1: TEV protease; numbered along this chain (parent)
# chain: MGESLFKGPRDYNPISSSICHLTNESDGHTTSLYGIGFGPFIITNKHLFRRNNGTLVVQSLHGVFKVKDTTTLQQHLVDGRDMIIIRMPKDFPPFPQKLKFREPQREERICLVTTNFQTKSMSSMVSDTSCTFPSGDGIFWKHWIQTKDGQCGSPLVSTRDGFIVGIHSASNFTNTNNYFTSVPKNFMELLTNQEAQQWVSGWRLNADSVLWGGHKVFMVKPEEPFQPVKEATQL
# Variants of: B1
# Test: raw area under fraction-flipped curve 0-4 h after induction (AUC4h, not background-subtracted), DNA-recorder readout of cleavage of the substrate (dimensionless); higher = more cleavage of the substrate by the protease variant
# Conditions: temperature: 34 °C; time window: 0-4 h after rhamnose induction
# 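Note: Bxb1 expression induced with 0.2% (w/v) L-rhamnose at OD600 near 0.5, cultures sampled hourly, flipped fraction per protease–substrate barcode pair counted by paired-end Illumina sequencing.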
Variant,area with substrate ELLYFQS,area with substrate EPLYFQS,area with substrate EQLYFQS,area with substrate ERLYFQS,area with substrate ESLYFQS,area with substrate EWLYFQS,area with substrate EFLYFQS,area with substrate EILYFQS,area with substrate EMLYFQS,area with substrate EVLYFQS
MGESLFKGPRDYNPISSSICHLTNESDGHTTSLYGIGFGPFIITNKHLFRRNNGTLVVQSLHGVFKVKDTTTLQQHLVDGRDMIIIRMPKDFPPFPQKLKFREPQREERICLVTTNFQTKSMSSMVSDTSCTFPSGDGKFWKHWIQTKDGQCGSPLVSTRDGFIVGIHSASNFTNTNNYFTSVPKNFMELLTNQEAQQWVSGWRLNADSVLWGGHKVFMVKPEEPFQPVKEATQL [I139K],0.0941,0.123,0.119,0.113,0.177,0.0933,,,,
MGESLFKGPRDYNPISSSICHLTNESDGHTTSLYGIGFGPFIITNKHLFRRNNGTLVVQSLHGVFKVKDTTTLQQHLVDGRDMIIIRMPKDFPPFPQKLKFREPQREERICLVTTNFQTKSMSSMVSDTTCTFPSGDGIFWKHWIQTKDGQCGSPLVSTRDGFIVGIHSASNFTNTNNYFTSVPKNFMELLTNQEAQQWVSGWRLNADSVLWGGHKVFMVKPEEPFQPVKEATQL [S130T],,,0.145,,0.109,,0.151,0.103,0.111,0.118
MGESLFKGPRDYNPISSSICHLTNESDGHTTSLYGIGFGPFIITNKHLFRRNNGTLVVQSLHGVFKVKDTTTLQQHLVDGRDMIIIRMPKDFPPFPQKLKFREPQREERICLVTTNFQTKSMSSMVSDTSCTFPSGDGIFWKHWIQTKDGQCGSPLVSTRDGCIVGIHSASNFTNTNNYFTSVPKNFMELLTNQEAQQWVSGWRLNADSVLWGGHKVFMVKPEEPFQPVKEATQL [F163C],,,0.121,,,,0.0952,,,0.0946
MGESLFKGPRDYNPISSSICHLTNESDGHTTSLYGIGFGPFIITNKHLFRRNNGTLVVQSLHGVFKVKDTTTLQQHLVDGRDMIIIRMPKDFPPFPQKLKFREPQREERICLVTTNFQTKSMSSMVSDTSCTFPSGDGIFWKYWIQTKDGQCGSPLVSTRDGFIVGIHSASNFTNTNNYFTSVPKNFMELLTNQEAQQWVSGWRLNADSVLWGGHKVFMVKPEEPFQPVKEATQL [H143Y],0.127,,0.114,0.118,0.14,,,0.115,0.118,0.0799
MGESLEKGPRDYNPISSSICHLTNESDGHTTSLYGIGFGPFIITNKHLFRRNNGTLVVQSLHGVFKVKDTTTLQQHLVDGRDMIIIRMPKDFPPFPQKLKFREPQREERICLVTTNFQTKSMSSMVSDTSCTFPSGDGIFWKHWIQTKDGQCGSPLVSTRDGFIVGIHSASNFTNTNNYFTSVPKNFMELLTNQEAQQWVSGWRLNADSVLWGGHKVFMVKPEEPFQPVKEATQL [F6E],0.1,,,0.0836,0.104,,0.0927,,,0.0798
MGESLFKGPRDYNPISSSICHLTNESDGHTTSLYGIGFGPFIITNKHLFRRNNGTLVVQSLHGVFKVKDTTTLQQHLVDGRDMIIIRMPKDFPPFPQKLKFREPQREERICLVTTNFQTKSMSSMVSDTSCTFPSGDGIFWKHWIQTKDGQCGSPLVSTRDGFIVGIHSASNFTNTNNYFTSVPKNFMELLTNQEAQQWVSGWRLNADSVLWGGHKVFMVKPEEPFQPVKEATQR [L235R],,,,,0.12,,,0.092,,
MGESLFKGPRDYNPISSSICHLTNESDGHTTSLYGIGFGPFIITNKHLFRRNNGTLVVQSLHGVFKVKDTTTLQQHLVDGRDMIIIRMPEDFPPFPQKLKFREPQREERICLVTTNFQTKSMSSMVSDTSCTFPSGDGIFWKHWIQTKDGQCGSPLVSTRDGFIVGIHSASNFTNTNNYFTSVPKNFMELLTNQEAQQWVSGWRLNADSVLWGGHKVFMVKPEEPFQPVKEATQL [K90E],,,0.122,0.113,,0.115,,,,0.0789
MGESLFKGPRDYNPISSSICHLTNESDGHTTSLYGIGFGPFIITNKHLFRRNNGTLVAQSLHGVFKVKDTTTLQQHLVDGRDMIIIRMPKDFPPFPQKLKFREPQREERICLVTTNFQTKSMSSMVSDTSCTFPSGDGIFWKHWIQTKDGQCGSPLVSTRDGFIVGIHSASNFTNTNNYFTSVPKNFMELLTNQEAQQWVSGWRLNADSVLWGGHKVFMVKPEEPFQPVKEATQL [V58A],,,,,,0.0929,,,,
MGESLFKGPRDYNPISSSICHLTNESDGHTTSLYGIGFGPFIITNKHLFRRNNGTLVVQSLHGVFKVKDTTTLQQHLVDGRDMIIIRMPKDFPPFPQKLKFREPQREERICLVTTNFQTKSMSSMVSDTSCTFPSGDGIFWKHWIQTKDGQCGSPLVSWRDGFIVGIHSASNFTNTNNYFTSVPKNFMELLTNQEAQQWVSGWRLNADSVLWGGHKVFMVKPEEPFQPVKEATQL [T159W],,,,,0.101,0.0958,,,,
MGESLFKGPRDYNPISSSICHLTNESDGHTTSLYGIGFGPFIITNKHLFRRNNGTLVVQSLHGVFKVKDTTTLQQHLVDGRDMIIIRMPKDFPPFPQKLKFREPQREERICLVTTNFQTKSMSSMVSDTSCTFPSGDGIFWKHWIQTKDGQCGSPLVSTRDGFIVGIHSASNFTNTRNYFTSVPKNFMELLTNQEAQQWVSGWRLNADSVLWGGHKVFMVKPEEPFQPVKEATQL [N177R],,0.165,,0.131,0.119,,0.137,0.102,0.142,0.112
MGESLFKGPRDYNPISSSICHLTNESDGHTTSLYGIGFGPFIITNKHLFRRNNGTLVVQSLHGVFKVKDTTTLQQHLVDGRDMIIIRMPKDFPPFPQKLKFREPQREERICLVTTNFQTKSMSSMVSDTSCTFPSGDGIFWKHWIQTKDGQCGSPLVSTRDGFIVGIHSASNKTNTNNYFTSVPKNFMELLTNQEAQQWVSGWRLNADSVLWGGHKVFMVKPEEPFQPVKEATQL [F173K],,,,,0.0746,,,,0.0816,0.0976

# Same assay, conditions: temperature: 34 °C; time window: 0-4 h after rhamnose induction
Variant,area with substrate EGLYFQS,area with substrate EKLYFQS,area with substrate EYLYFQS,area with substrate EHLYFQS
MGESLFKGPRDYNPISSSICHLTNESDGHTTSLYGIGFGPFIITNKHLFRRNNGTLVVQSLHGVFKVKDTTTLQQHLVDGRDMIIIRMPKDFPPFPQKLKFREPQREERICLVTTNFQTKSMSSMVSDTSCTFPSGDGIFWKHWIQTKDGQCGSPLVSTRDGCIVGIHSASNFTNTNNYFTSVPKNFMELLTNQEAQQWVSGWRLNADSVLWGGHKVFMVKPEEPFQPVKEATQL [F163C],0.0974,0.141,,
MGESLFKGPRDYNPISSSICHLTNESDGHTTSLYGIGFGPFIITNKHLFRRNNGTLVVQSLHGVFKVKDTTTLQQHLVDGRDMIIIRMPKDFPPFPQKLKFREPQREERICLVTTNFQTKSMSSMVSDTSCTFPSGDGIFWKYWIQTKDGQCGSPLVSTRDGFIVGIHSASNFTNTNNYFTSVPKNFMELLTNQEAQQWVSGWRLNADSVLWGGHKVFMVKPEEPFQPVKEATQL [H143Y],0.116,0.145,0.133,
MGESLFKGPRDYNPISSSICHLTNESDGHTTSLYGIGFGPFIITNKHLFRRNNGTLVVQSLHGVFKVKDTTTLQQHLVDGRDMIIIRMPKDFPPFPQKLKFREPQREERICLVTTNFQTKSMSSMVSDTSCTFPSGDGIFWKHWIQTKDGQCGSPLVSTRDGFIVGIHSASNFTNTNNYFTSVPKNFMELLTNQEAQQWVSGWRLNADSVLWGGHKVFMVKPEEPFQPVKEATQR [L235R],0.106,,,
MGESLFKGPRDYNPISSSICHLTNESDGHTTSLYGIGFGPFIITNKHLFRRNNGTLVVQSLHGVFKVKDTTTLQQHLVDGRDMIIIRMPKDFPPFPVKLKFREPQREERICLVTTNFQTKSMSSMVSDTSCTFPSGDGIFWKHWIQTKDGQCGSPLVSTRDGFIVGIHSASNFTNTNNYFTSVPKNFMELLTNQEAQQWVSGWRLNADSVLWGGHKVFMVKPEEPFQPVKEATQL [Q97V],,,0.0899,
MGESLFKGPRDYNPISSSICHLTNESDGHTTSLYGIGFGPFIITNKHLFRRNNGTLVVQSLHGVFKVKDTTTLQQHLVDGRDMIIIRMPEDFPPFPQKLKFREPQREERICLVTTNFQTKSMSSMVSDTSCTFPSGDGIFWKHWIQTKDGQCGSPLVSTRDGFIVGIHSASNFTNTNNYFTSVPKNFMELLTNQEAQQWVSGWRLNADSVLWGGHKVFMVKPEEPFQPVKEATQL [K90E],0.154,,0.109,
MGESLFKGPRDYNPISSSICHLTNESDGHTTSLYGIGFGPFIITNKHLFRRNNGTLVVQSLHGVFKVKDTTTLQQHLVDGRDMIIIRMPKDFPPFPQKLKFREPQREERICLVTTNFQTKSMSSMVSDTSLTFPSGDGIFWKHWIQTKDGQCGSPLVSTRDGFIVGIHSASNFTNTNNYFTSVPKNFMELLTNQEAQQWVSGWRLNADSVLWGGHKVFMVKPEEPFQPVKEATQL [C131L],,,,0.126
MGESLFKGPRDYNPISSSICHLTNESDGHTTSLYGIGFGPFIITNKHLFRRNNGTLVVQSLHGVFKVKDTTTLQQHLVDGRDMIIIRMPKDFPPFPQKLKFREPQREERICLVTTNFQTKSMSSMVSDTSCTFPSGDGIFWKHWIQTKDGQCGSPLVSWRDGFIVGIHSASNFTNTNNYFTSVPKNFMELLTNQEAQQWVSGWRLNADSVLWGGHKVFMVKPEEPFQPVKEATQL [T159W],,0.12,,
MGESLFKGPRDYNPISSSICHLTNESDGHTTSLYGIGFGPFIITNKHLFRRNNGTLVVQSLHGVFKVKDTTTLQQHLVDGRDMIIIRMPKDFPPFPQKLKFREPQREERICLVTTNFQTKSMSSMVSDTSCTFPSGDGIFWKHWIQTKDGQCGSPLVSTRDGFIVGIHSASNFTNTRNYFTSVPKNFMELLTNQEAQQWVSGWRLNADSVLWGGHKVFMVKPEEPFQPVKEATQL [N177R],0.142,,0.105,
